Experimental data from paper PMC4336329 (PLoS ONE, 2015).
Screen size: about 310,000 compounds; about 14,000 (4.5%) showed an effect of 50% or more. Effects have a minus sign here. This is one part of the list.

Target: human ether-à-go-go-related gene (hERG) potassium channel (human, UniProt Q12809)
Assay: primary screen, population patch clamp on CHO cells stably expressing hERG
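Also: peak tail current of the secondary pulse compared with the same well before compound.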

human ether-à-go-go-related gene (hERG) potassium channel, sequence (Q12809 whole entry, looked up): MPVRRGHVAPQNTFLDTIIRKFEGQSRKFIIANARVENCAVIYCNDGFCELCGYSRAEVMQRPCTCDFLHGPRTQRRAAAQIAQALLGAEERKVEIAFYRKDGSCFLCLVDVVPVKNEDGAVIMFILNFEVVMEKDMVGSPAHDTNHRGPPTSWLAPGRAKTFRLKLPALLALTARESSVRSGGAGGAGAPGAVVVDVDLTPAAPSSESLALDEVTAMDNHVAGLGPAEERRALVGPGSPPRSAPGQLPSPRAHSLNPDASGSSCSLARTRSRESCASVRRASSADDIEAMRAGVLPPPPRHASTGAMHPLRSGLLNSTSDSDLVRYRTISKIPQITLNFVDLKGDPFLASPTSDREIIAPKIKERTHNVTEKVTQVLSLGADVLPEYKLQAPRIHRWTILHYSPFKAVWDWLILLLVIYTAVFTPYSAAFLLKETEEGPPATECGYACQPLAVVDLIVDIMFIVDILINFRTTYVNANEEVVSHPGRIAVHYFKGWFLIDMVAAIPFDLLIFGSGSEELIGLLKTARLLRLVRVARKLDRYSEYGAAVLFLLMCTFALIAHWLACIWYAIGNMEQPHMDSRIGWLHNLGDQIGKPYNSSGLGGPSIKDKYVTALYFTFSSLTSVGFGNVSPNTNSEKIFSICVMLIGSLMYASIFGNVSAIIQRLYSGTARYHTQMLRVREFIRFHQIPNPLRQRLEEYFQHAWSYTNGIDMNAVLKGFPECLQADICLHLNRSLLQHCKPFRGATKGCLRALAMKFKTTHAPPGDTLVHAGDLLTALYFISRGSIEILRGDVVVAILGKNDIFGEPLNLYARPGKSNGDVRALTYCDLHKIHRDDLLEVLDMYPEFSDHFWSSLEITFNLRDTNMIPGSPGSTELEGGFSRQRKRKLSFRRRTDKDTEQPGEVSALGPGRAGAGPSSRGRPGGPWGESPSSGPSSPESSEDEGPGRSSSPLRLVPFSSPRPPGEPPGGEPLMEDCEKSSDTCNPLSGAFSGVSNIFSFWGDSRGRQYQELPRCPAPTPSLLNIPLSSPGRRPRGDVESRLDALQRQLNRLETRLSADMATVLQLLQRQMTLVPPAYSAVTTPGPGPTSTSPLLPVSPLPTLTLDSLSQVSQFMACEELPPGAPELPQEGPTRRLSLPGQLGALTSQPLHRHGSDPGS

Structure (SMILES) | hERG current change (%, negative = inhibition) at 10uM [%]
C=CCOc1c(Br)cc(C2NC(=O)NC(C)=C2C(C)=O)cc1OCC (stereo not shown) | 13.4
Cn1nc(-c2ccccc2)c(C(=O)Nc2ccc(C(F)(F)F)cc2)c1Cl | -4.85
Cc1ccc(-c2noc(CCC(=O)N3CCCC3)n2)cc1 | -1.57
Cc1ccc(Oc2ccc(OCC(=O)OC3CCS(=O)(=O)C3)cc2)cc1 (stereo not shown) | 7.68
Cn1c(=O)c(C(=O)Nc2ncccn2)c(O)c2ccccc21 | 14.4
CCc1ccc(OCC(=O)O/N=C(\N)c2ccncc2)c(Br)c1 | 10.2
Cl.O=C(OCCN1CCCCC1)c1ccccc1Cl | -4.37
CCCCOc1ccc(CCN)cc1Cl.Cl | -13.7
CCc1ccc(C(=O)Nc2ccc(OC)c(S(=O)(=O)N3CCCCC3)c2)cc1 | -22.3
O=C(NNC(=S)NCc1ccccc1)c1ccc(OC(F)F)cc1 | -4.93
COc1cc(/C=N/NC(=O)CNC(=O)c2ccccc2)ccc1OC(=O)c1cccs1 | -16
CNC(=O)COC(=O)c1ccc([N+](=O)[O-])cc1Cl | 14.7
Cc1cc(C)[n+](C2C3CC4CC(C3)CC2C4)o1.[O-][Cl+3]([O-])([O-])[O-] (stereo not shown) | 14.7
CCCCC12CNCC(C)(CNC1)C2=O | 1.19
O=C(O)c1ccc(-c2noc(-c3ccccc3C(F)(F)F)n2)cc1 | 14.6
CCc1ccc(C(C(=O)NC2CCCC2)N(Cc2cccnc2)C(=O)c2csnn2)cc1 (stereo not shown) | -15
S=C(NCc1ccco1)N/N=C/c1ccncc1 | -13.6
CCOc1ccc(CCNC(=O)/C=C/c2ccco2)cc1OCC | -70
COc1ccc(NC(=O)NNC(=O)c2cc(C3CC3)nc3ccccc23)c(OC)c1 | 8.88
COc1ccc(Cl)cc1NS(=O)(=O)c1ccc(OC)c(OC)c1 | -11.3
C=CCN(C(=O)c1csnn1)C(C(=O)NC1CCCC1)c1c(F)cccc1Cl (stereo not shown) | 1.48
COC(CNS(=O)(=O)c1cccc2nonc12)OC | 14.5
Cc1cccn2c(=O)c(C=NCc3ccccc3)c(NCCO)nc12 | 0.417

Structure (SMILES) | hERG current change (%, negative = inhibition) at 10uM [%]
CC(CN1CCOCC1)OC(=O)/C=C/c1ccccc1.Cl (stereo not shown) | 10.1
COC(=O)c1cccc(COC(=O)c2cccnc2SC)c1 | -1.7
CN(C(=O)c1ccc(NC(=O)Cc2ccc(NC(=O)C3CCCN(C(=O)C4CC4)C3)cc2)cc1)C1CC1 (stereo not shown) | -4.41
CSc1oc(-c2cccs2)nc1S(=O)(=O)c1ccccc1 | -2.86
Cn1c(=O)c(C(=S)NC(=O)C2CC2)c(N)n(Cc2ccccc2)c1=O | 18.2
COc1ccc(Cc2cc(-c3ccc(F)cc3)n[nH]c2=O)cc1 | 11.3
COCCn1c(SCC(N)=O)nnc1-c1c[nH]c2ccccc12 | 12
COc1ccccc1CNC(=O)CSc1ccccc1 | 10.9
COc1cc(NC(=O)c2cc3nc(-c4ccccc4)cc(-c4ccccc4)n3n2)cc(OC)c1OC | 6.37
CCOC(=O)C[C@H]1c2cc(F)ccc2S(=O)(=O)N1C(C)(C)C | 0.338
CCn1ncc(Cl)c1C(=O)Nc1cc(Cl)ccc1Cl | 3.04
O=C(NCc1ccccc1)C(c1ccco1)N(C(=O)c1csnn1)c1ccccc1 (stereo not shown) | 21.6
Cc1ccccc1C(=O)N1CCN(CCNC(=O)C(=O)Nc2ccc(Br)cc2)CC1 | -68.8
CN1C=CC=C/C1=C1/N=C(c2ccccc2)OC1=O | 31.5
CN(C)CCN(C(=O)c1ccc(Br)s1)c1nc2cc3c(cc2s1)OCCO3.Cl | -4.91
COC(=O)C1=NN(c2ccc(Cl)cc2)C2C(=O)N(c3ccccc3OC)C(=O)C12 (stereo not shown) | 12
CC(C)(C)C(=O)NC(=S)Nc1ccccc1C(=O)Nc1ccccc1 | 6.6
Nc1ccc(Oc2ccccc2-c2ccccc2)cc1 | -20.4
COc1ccccc1NS(=O)(=O)c1cc(NC(=O)c2cccs2)ccc1N1CCCC1 | 6.58
CCOC(=O)c1cn[nH]c1NC(=S)Nc1ccc(Cl)cc1 | 1.86
Clc1ccc(CSc2nnc(-c3ccccn3)n2Cc2ccco2)c(Cl)c1 | -5.15
CC(C)C(c1nnnn1C(C)(C)C)N1CCC(Cc2ccccc2)CC1 (stereo not shown) | -14.3
Cc1ccccc1-n1c(SC2CCOC2=O)nnc1-c1ccncc1 (stereo not shown) | -3.17

Structure (SMILES) | hERG current change (%, negative = inhibition) at 10uM [%]
O=C(COc1ccc([N+](=O)[O-])cc1Cl)N1CCOCC1 | 12
Cc1cc2c(cc1C)[n+](C)cn2CC(O)COCc1ccccc1.[I-] (stereo not shown) | 6.97
N#CC1=C2SCCN2C(=O)C(C#N)C12CCCCC2 (stereo not shown) | -25.9
COc1ccccc1CNC(=O)c1cc2ccccc2o1 | -26.4
CCOC(=O)c1cccc(NC(=O)CSc2nnc(-c3cccnc3)n2C)c1 | -30.4
O=C(C1=C[C@@H](c2coc3ccccc3c2=O)C[C@@H](OCCCCO)O1)N1CCN(Cc2ccc3c(c2)OCO3)CC1 | -49.7
O=C(O)CCC(=O)c1ccc(-c2ccccc2)cc1 | -6.1
CC(=O)N1c2ccc(S(=O)(=O)N3CCCC3)cc2CC1C(=O)NCc1cccc(F)c1 (stereo not shown) | -2.23
CCCCN(Cc1ccccc1)S(=O)(=O)c1cc(Br)cc2c1N(C(C)=O)C(C)C2 (stereo not shown) | -10.6
O=C(Cc1cccs1)Nc1cc(S(=O)(=O)N2CCCCC2)ccc1Cl | -0.378
COc1ccc(OCC(=O)Nc2ccc(N3CCOCC3)c(Cl)c2)cc1 | -19.6
CC(=O)c1ccc(NC(=O)NCc2ccc(F)cc2)cc1 | 7.1
COc1ccc(Nc2nc(-c3ccccc3)nc3ccccc23)c(OC)c1 | -1.67
CCCS(=O)(=O)N1CCC(C(=O)NCCN2CCC(Cc3ccccc3)CC2)CC1 | -57.6
CCn1c(=O)c(C(=O)NCCc2ccc(Cl)cc2)c(O)c2ccccc21 | 17.2
O=C(Cc1ccsc1)N1CCN(S(=O)(=O)c2cc(C(F)(F)F)cc(C(F)(F)F)c2)CC1 | 1.69
O=C(Cc1cn2ccsc2n1)Nc1nc2c(s1)CCCC2 | -0.221
CCCCCNCc1cccn1C.Cl | 3.62
C[C@H](NC(=O)c1nc[nH]c1C(=O)NC(c1ccccc1)c1ccccc1)C(=O)OC(C)(C)C | 8.78
COc1ccc(-c2csc(NC(=O)C3CCCO3)n2)cc1 (stereo not shown) | -1.6
O=C(Nc1ccccc1)c1ccccc1CC[N+](=O)[O-] | 3.97
Cc1ccc(Cl)cc1N(CC(=O)NCc1ccccc1)S(C)(=O)=O | -2.19
Cc1cc(=O)oc2cc(OCC(=O)NC3CC(C)(C)NC(C)(C)C3)ccc12 | -34.2

Structure (SMILES) | hERG current change (%, negative = inhibition) at 10uM [%]
CC1(C)Cc2nc3sc4c(SCC(=O)NC(c5ccccc5)c5ccccc5)ncnc4c3cc2CO1 | 2.55
CCCCCCCCN1C(=O)C(O)=C(C(C)=O)C1c1ccccn1 (stereo not shown) | 7.63
O=C(COC(=O)c1ccccn1)Nc1ncc(C(F)(F)F)cc1Cl | -11.7
CCOC(=O)Nc1ccc2c(c1)N(C(=O)CCN(CC)CC)c1ccccc1S2=O.Cl (stereo not shown) | -18
CCCOc1ccc2c3c(c(=O)oc2c1OCCC)CCCC3 | -3.67
CCCCn1c(N)c(N(CCOC)C(=O)c2c(C)noc2C)c(=O)[nH]c1=O | 3.51
COc1cccc(NC(=O)COc2ccc(C)cc2)c1 | -10.5
COc1ccccc1NS(=O)(=O)c1ccc2c(c1)CCN2C(=O)CCC(=O)O | 19.4
CC1(C)CC(O)CC(C)(C)N1CC(O)COCc1ccccc1 (stereo not shown) | 11.7
O=C1C([N+](=O)[O-])=C(O)c2cccc3cccc1c23 | 15.4
ClCc1cc2ccccc2nc1Cl | 0.612
CCOC(=O)N1CCC(NC2CCCCCCC2)CC1 | -5.65
Cc1ccc(N)c(C(=O)c2ccc(Br)cc2)c1 | 3.56
Cc1cc(C)c(NC(=O)CSc2nc3ccncc3[nH]2)c(C)c1 | 19.5
CCc1cc(=O)oc2cc(C)cc(OC(C)C(=O)NCCN3CCOCC3)c12 (stereo not shown) | 4.16
Cn1cc(Cl)c(-c2nc3ccccc3[nH]2)n1 | -1.45
CC1(C)OC(=O)C(=CNc2cccc(O)c2)C(=O)O1 | 6.14
COc1ccc(CCn2c(=O)[nH]c3cc(C(=O)NCCCN4CCOCC4)ccc3c2=O)cc1OC | 28.6
COc1cc(C=O)ccc1Oc1nnnn1-c1ccccc1 | 5.77
O=C(c1ccc(F)cc1)N1CCN(C(=O)c2cccnc2)CC1 | 7.35
O=C(CSc1ccccc1)NCCc1ccc(F)cc1 | 10.8
COc1ccc(-c2noc(N3CCC(C(=O)Nc4ccccc4F)CC3)n2)cc1 | -1.98
